Holding throughout (test): cell-based or functional assay
One assay deals with CD3ε chain (human, UniProt P07766 23-126, limits assumed).
For assay [1], the target named is T1, human CLL1 (C-type lectin-like receptor, CLEC12A, MICL) (human, UniProt Q5QGZ9 1-265).
T1 sequence (looked up): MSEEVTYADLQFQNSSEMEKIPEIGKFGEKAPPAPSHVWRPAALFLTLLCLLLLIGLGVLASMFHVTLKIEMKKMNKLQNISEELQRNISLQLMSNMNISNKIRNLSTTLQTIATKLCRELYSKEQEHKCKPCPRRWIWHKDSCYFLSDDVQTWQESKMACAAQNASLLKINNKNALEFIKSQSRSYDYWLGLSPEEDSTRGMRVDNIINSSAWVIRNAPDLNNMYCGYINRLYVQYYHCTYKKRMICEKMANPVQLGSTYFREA

Assay [2] deals with human FLT3 (Fms like tyrosine kinase 3, CD135) (human, UniProt P36888 27-993).
Assay [3] concerns the target T2, human MSLN (human, UniProt Q13421 37-598).
Assay [4] has as its target T3, human CDH3 (human, UniProt P22223 108-829).
Assay [5] addresses T2, human MSLN. This is another data set of the same source.
Assay [6] deals with T3, human CDH3. This is another data set of the same source.
Assay [7] addresses T2, human MSLN. This is another data set of the same source.
The target of assay [8] is T3, human CDH3. The source holds these as a separate data set.

From patent US20240209078A1 (Amgen, published 2024) come the findings set out here.

Sequence of CD3ε chain (P07766 23-126 limits assumed): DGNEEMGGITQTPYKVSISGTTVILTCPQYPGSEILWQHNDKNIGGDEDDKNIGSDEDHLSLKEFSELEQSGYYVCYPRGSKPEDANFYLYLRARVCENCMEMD

B1: CL1 9-G4 CC × 4F10.03mut × scFc × FL 4-E9 CC × 4F10.03mut (bispecific antibody)
chain: QVQLVQSGAEVKKPGASVKVSCKASGYTFTDYYMHWVRQAPGQCLEWMGWINPNSGGPNYAQKFQGRVTMTRDTSISTAHMELSRLRSDDTAVYYCAREKHAVAGIGFDYWGQGTLVTVSSGGGGSGGGGSGGGGSDIQMTQSPSSVSASVGDRVTITCQASQDISNYLNWYQQKPGKAPKLLIYAASSLESGVPSRFSGSGSGTDFTLTISSLQPEDFATYYCQQANSFPLTFGCGTKVDIKSGGGGSEVQLVESGGGLVQPGGSLKLSCAASGFTFNKYAMNWVRQAPGKGMEWVARIRSKYNNYATYYADAVKDRFTISRDDSKNTLYLQMNNLKTEDTAVYYCVRAGNFGKSYISYWAYWGQGTLVTVSSGGGGSGGGGSGGGGSQTVVTQEPSLTVSPGGTVTIT[sequence of about 80 residues omitted]FGSGTKLTVLGGGGSGGGGSGGGGS[sequence of human IgG1 Fc with R292C N297G V302C (EU numbers) omitted]GGGGSGGGGSGGGGSGGGGSGGGGSGGGGS[sequence of human IgG1 Fc with R292C N297G V302C (EU numbers) omitted]GGGGSGGGGSGGGGSQVTLKESGPTLVKPTETLTLTCTVSGFSFRNARMGVSWIRQPPGKCLEWLAHIFSNDEKSYSTSLKSRLTISKDTSKSQVVLTMTNMDPVDTATYFCARVPEYSSGWYRFDYWGQGTLVTVSSGGGGSGGGGSGGGGSDIQMTQSPSSLSASVGDRVTISCRASQSIRSYLNWYQQKPGKAPKLLIYATSSLQGGVPSRFSGSGSGTDFTLTISSLQPEDFATYYCQQSYSTPFTFGCGTKVEIKSGGGGSEVQLVESGGGLVQPGGSLKLSCAASGFTFNKYAMNWVRQAPGKGMEWVARIRSKYNNYATYYADAVKDRFTISRDDSKNTLYLQMNNLKTEDTAVYYCVRAGNFGKSYISYWAYWGQGTLVTVSSGGGGSGGGGSGGGGSQTVVTQEPSLTVSPGGTVTIT[sequence of about 80 residues omitted]FGSGTKLTVL
With B1, the “Activity reduction of single CD3 binding domain in molecule compared to high affinity binding domain I2C with KD 1.2E-08M” value with CD3ε chain was around 6 fold. Also, the “cytotoxicity EC50, CHO huCLL1 cells” value in [1] was determined as 261 pM. In assay [2], the “cytotoxicity EC50, CHO huFLT3 cells” value is 428 pM.

B2: MS 15-B12 CC × I2L × G4 × scFc × G4 × CH3 15-E11 CC × I2L (SEQ ID NO: 1078) (bispecific antibody)
chain: QVQLQESGPGLVKPSETLSLTCTVSGGSISSSSYFWGWIRQPPGKCLEWIGNIYYSGSSNYNPSLKSRVTISVDTSKNQFSLKLSSVTAADTAVYYCARLPRGDRDAFDIWGQGTMVTVSSGGGGSGGGGSGGGGSDIVMTQSPSSLSASVGDRVTITCRASQGISNYLAWYQQKPGKVPKLLIYAASTLQSGVPSRFSGSGSGTDFTLTISSLQPEDFATYYCQQSYSTPFTFGCGTKVEIKSGGGGSEVQLVESGGGLVQPGGSLKLSCAASGFTFNKYAMNWVRQAPGKGMEWVARIRSKYNNYATYYADAVKDRFTISRDDSKNTLYLQMNNLKTEDTAVYYCVRAGNFGSSYISYFAYWGQGTLVTVSSGGGGSGGGGSGGGGSQTVVTQEPSLTVSPGGTVTITCGSSTGAVTSGNYPNWIQKKPGQAPRGLIGGTKFLAPGTPARFSGSLEGGKAALTLSGVQPEDEAEYYCVLYYSNRWVFGSGTKLTVLGGGGSGGGGSGGGGS[sequence of human IgG1 Fc with R292C N297G V302C (EU numbers) omitted]GGGGSGGGGSGGGGSGGGGSGGGGSGGGGS[sequence of human IgG1 Fc with R292C N297G V302C (EU numbers) omitted]GGGGSGGGGSGGGGSQVQLVQSGAEVKKPGASVKVSCKASGYTFTNYWMNWVRQAPGQCLEWMGNIAYGVKGTNYNQKFQGRVTMTVDTSSSTAYMELSRLRSDDTAVYYCATRYFYVMDYWGQGTLVTVSSGGGGSGGGGSGGGGSDIQMTQSPSSLSASVGDRVTITCRASQDISNYLNWYQQKPGKVPKLLIYYTSRLHSGVPSRFSGSGSGTDFTLTISSLQPEDVATYYCVQYAQFPLTFGCGTKVEIKSGGGGSEVQLVESGGGLVQPGGSLKLSCAASGFTFNKYAMNWVRQAPGKGMEWVARIRSKYNNYATYYADAVKDRFTISRDDSKNTLYLQMNNLKTEDTAVYYCVRAGNFGSSYISYFAYWGQGTLVTVSSGGGGSGGGGSGGGGSQTVVTQEPSLTVSPGGTVTITCGSSTGAVTSGNYPNWIQKKPGQAPRGLIGGTKFLAPGTPARFSGSLEGGKAALTLSGVQPEDEAEYYCVLYYSNRWVFGSGTKLTVL
On to B2, for which, in the assay with human MSLN [3], the “EC50 GSU KO CDH3 (cytotoxicity; cells CDH3-, MSLN+)” value is 289 pM and the “fold selectivity gap, GSU KO CDH3 against GSU wt” value was 138 fold. Moreover, in the assay with human CDH3 [4], the “EC50 GSU KO MSLN (cytotoxicity; cells CDH3+, MSLN-)” value is 177 pM and the “fold selectivity gap, GSU KO MSLN against GSU wt” value turned out to be 84 fold.

B3: CL1 9-G4 CC × 6H10.03 × scFc × FL 4-E9 CC × 6H10.03 (bispecific antibody)
chain: QVQLVQSGAEVKKPGASVKVSCKASGYTFTDYYMHWVRQAPGQCLEWMGWINPNSGGPNYAQKFQGRVTMTRDTSISTAHMELSRLRSDDTAVYYCAREKHAVAGIGFDYWGQGTLVTVSSGGGGSGGGGSGGGGSDIQMTQSPSSVSASVGDRVTITCQASQDISNYLNWYQQKPGKAPKLLIYAASSLESGVPSRFSGSGSGTDFTLTISSLQPEDFATYYCQQANSFPLTFGCGTKVDIKSGGGGSEVQLVESGGGLVQPGGSLKLSCAASGFTFNKYAMNWVRQAPGKGMEWVARIRSKYNNYATYYAEAVKDRFTISRDDSKNTLYLQMNNLKTEDTAVYYCVRAGNFGKSYISYWAYWGQGTLVTVSSGGGGSGGGGSGGGGSQTVVTQEPSLTVSPGGTVTITCGSSTGAVTSGNYPNWIQKKPGQAPRGLIGGTKFLAPGTPARFSGSLEGGKAALTLSGVQPEDEAEYYCVLWYSNRWVFGSGTKLTVLGGGGSGGGGSGGGGS[sequence of human IgG1 Fc with R292C N297G V302C (EU numbers) omitted]GGGGSGGGGSGGGGSGGGGSGGGGSGGGGS[sequence of human IgG1 Fc with R292C N297G V302C (EU numbers) omitted]GGGGSGGGGSGGGGSQVTLKESGPTLVKPTETLTLTCTVSGFSFRNARMGVSWIRQPPGKCLEWLAHIFSNDEKSYSTSLKSRLTISKDTSKSQVVLTMTNMDPVDTATYFCARVPEYSSGWYRFDYWGQGTLVTVSSGGGGSGGGGSGGGGSDIQMTQSPSSLSASVGDRVTISCRASQSIRSYLNWYQQKPGKAPKLLIYATSSLQGGVPSRFSGSGSGTDFTLTISSLQPEDFATYYCQQSYSTPFTFGCGTKVEIKSGGGGSEVQLVESGGGLVQPGGSLKLSCAASGFTFNKYAMNWVRQAPGKGMEWVARIRSKYNNYATYYAEAVKDRFTISRDDSKNTLYLQMNNLKTEDTAVYYCVRAGNFGKSYISYWAYWGQGTLVTVSSGGGGSGGGGSGGGGSQTVVTQEPSLTVSPGGTVTITCGSSTGAVTSGNYPNWIQKKPGQAPRGLIGGTKFLAPGTPARFSGSLEGGKAALTLSGVQPEDEAEYYCVLWYSNRWVFGSGTKLTVL
Turning to B3, the “Activity reduction of single CD3 binding domain in molecule compared to high affinity binding domain I2C with KD 1.2E-08M” value in the assay with CD3ε chain was around 9 fold. Further, the “cytotoxicity EC50, CHO huCLL1 cells” value in [1] was 675 pM. Further, in [2], the “cytotoxicity EC50, CHO huFLT3 cells” value came to 785 pM.

B4: MS 15-B12 CC×I2L×(G4S)3×scFc×(G4S)3×CH3 26-E5 CC×I2L (bispecific antibody)
chain: QVQLQESGPGLVKPSETLSLTCTVSGGSISSSSYFWGWIRQPPGKCLEWIGNIYYSGSSNYNPSLKSRVTISVDTSKNQFSLKLSSVTAADTAVYYCARLPRGDRDAFDIWGQGTMVTVSSGGGGSGGGGSGGGGSDIVMTQSPSSLSASVGDRVTITCRASQGISNYLAWYQQKPGKVPKLLIYAASTLQSGVPSRFSGSGSGTDFTLTISSLQPEDFATYYCQQSYSTPFTFGCGTKVEIKSGGGGSEVQLVESGGGLVQPGGSLKLSCAASGFTFNKYAMNWVRQAPGKGMEWVARIRSKYNNYATYYADAVKDRFTISRDDSKNTLYLQMNNLKTEDTAVYYCVRAGNFGSSYISYFAYWGQGTLVTVSSGGGGSGGGGSGGGGSQTVVTQEPSLTVSPGGTVTITCGSSTGAVTSGNYPNWIQKKPGQAPRGLIGGTKFLAPGTPARFSGSLEGGKAALTLSGVQPEDEAEYYCVLYYSNRWVFGSGTKLTVLGGGGSGGGGSGGGGS[sequence of human IgG1 Fc with R292C N297G V302C (EU numbers) omitted]GGGGSGGGGSGGGGSGGGGSGGGGSGGGGS[sequence of human IgG1 Fc with R292C N297G V302C (EU numbers) omitted]GGGGSGGGGSGGGGSQVQLVQSGAEVKKPGASVKVSCKASGYTFTSYWMHWVRQAPGQCLEWMGVIRTSTSYTIYNQKFKGRVTMTRDTSTSTVYMELSSLRSEDTAVYYCARSGPGYFDVWGQGTMVTVSSGGGGSGGGGSGGGGSDIQLTQSPSFLSASVGDRVTITCRASENIYSYLAWYQQKPGKAPKLLIYNAKTLAEGVPSRFSGSGSGTEFTLTISSLQPEDFATYYCQHNYGTPYTFGCGTKLEIKSGGGGSEVQLVESGGGLVQPGGSLKLSCAASGFTFNKYAMNWVRQAPGKGMEWVARIRSKYNNYATYYADAVKDRFTISRDDSKNTLYLQMNNLKTEDTAVYYCVRAGNFGSSYISYFAYWGQGTLVTVSSGGGGSGGGGSGGGGSQTVVTQEPSLTVSPGGTVTITCGSSTGAVTSGNYPNWIQKKPGQAPRGLIGGTKFLAPGTPARFSGSLEGGKAALTLSGVQPEDEAEYYCVLYYSNRWVFGSGTKLTVL
Turning to B4, in the assay with human MSLN [5], the “EC50 on HCT 116 KO CDH3 (cytotoxicity; cells CDH3-, MSLN+)” value was 58.5 pM and the “EC50 on HCT 116 wt (cytotoxicity; cells CDH3+, MSLN+)” value was 1.27 pM. In addition, in the assay with human CDH3 [6], the “EC50 on HCT 116 KO MSLN (cytotoxicity; cells CDH3+, MSLN-)” value worked out at 71 pM and the “EC50 on HCT 116 wt (cytotoxicity; cells CDH3+, MSLN+)” value was determined as 1.27 pM. In the assay with human MSLN [7], the “EC50 (cytotoxicity) on double positive cells; column head printed 'EC50 CHO hu CDH3 (+) & MSLN (+)'; value is that of HCT 116 wt in Table 46” value is 1.27 pM; the “EC50 (cytotoxicity); column head printed 'EC50 CHO hu CDH3 (+)', table title HCT 116; value is that of HCT 116 KO CDH3 in Table 46” value is 58.5 pM; the “fold gap of column 6 (HCT 116 KO CDH3 by Table 46) against double positive cells” value worked out at 46 fold. Further, in the assay with human CDH3 [8], the “EC50 (cytotoxicity) on double positive cells; column head printed 'EC50 CHO hu CDH3 (+) & MSLN (+)'; value is that of HCT 116 wt in Table 46” value turned out to be 1.27 pM; the “EC50 (cytotoxicity); column head printed 'EC50 CHO hu MSLN (+)', table title HCT 116; value is that of HCT 116 KO MSLN in Table 46” value was 71 pM; the “fold gap of column 2 (HCT 116 KO MSLN by Table 46) against double positive cells” value came to 56 fold.
